# The supplement of paper PMC8728848
# The other results are listed elsewhere or left out.
# Assays:
# Assay in all cases: glycan array binding signal (z-score within array); higher = stronger binding
# Details in all cases: glycan notation: IUPAC condensed, linker removed
# Glc(b1-6)Glc = target: Glc(b1-6)Glc
# Method in brief: (§1)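 From the Consortium for Functional Glycomics database, 3228 arrays were curated, keeping only those whose protein sequence was available. Binding is given as a within-array Z-score averaged across arrays sharing a protein sequence and across linkers. Negative Z-scores can be read as non-binding.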
# GlcA(b1-3)Gal = target: GlcA(b1-3)Gal
# Method in brief: as §1
# GlcA(b1-3)GlcNAc = target: GlcA(b1-3)GlcNAc
# Method in brief: as §1
# GlcA(b1-6)Gal = target: GlcA(b1-6)Gal
# Method in brief: as §1
# [1] = target: GlcA3S(b1-3)Gal(b1-4)GlcNAc(b1-2)Man
# Method in brief: as §1
# [2] = target: GlcA3S(b1-3)Gal(b1-4)GlcNAc(b1-3)Gal(b1-4)Glc
# Method in brief: as §1
# [3] = target: GlcNAc(a1-3)Gal(b1-4)GlcNAc
# Method in brief: as §1
# [4] = target: GlcNAc(a1-4)Gal(b1-3)GlcNAc
# Method in brief: as §1
# [5] = target: GlcNAc(a1-4)Gal(b1-4)GalNAc
# Method in brief: as §1
# [6] = target: GlcNAc(a1-4)Gal(b1-4)GlcNAc
# Method in brief: as §1
# [7] = target: GlcNAc(a1-4)Gal(b1-4)GlcNAc(b1-3)Gal(b1-4)Glc
# Method in brief: as §1
# [8] = target: GlcNAc(a1-4)Gal(b1-4)GlcNAc(b1-3)Gal(b1-4)GlcNAc
# Method in brief: as §1
# [9] = target: GlcNAc(a1-4)Gal(b1-4)GlcNAc(b1-3)Gal(b1-4)GlcNAc(b1-3)Gal(b1-4)GlcNAc
# Method in brief: as §1
# [10] = target: GlcNAc(a1-4)Gal(b1-4)GlcNAc(b1-3)Gal(b1-4)[Fuc(a1-3)]GlcNAc(b1-3)Gal(b1-4)[Fuc(a1-3)]GlcNAc
# Method in brief: as §1
# [11] = target: GlcNAc(a1-6)Gal(b1-4)GlcNAc
# Method in brief: as §1
# [12] = target: GlcNAc(b1-2)Gal(b1-3)GalNAc
# Method in brief: as §1
# [13] = target: GlcNAc(b1-2)Man(a1-3)[GlcNAc(b1-2)Man(a1-6)]Man(b1-4)GlcNAc(b1-4)GlcNAc
# Method in brief: as §1
# [14] = target: GlcNAc(b1-2)Man(a1-3)[GlcNAc(b1-2)Man(a1-6)]Man(b1-4)GlcNAc(b1-4)[Fuc(a1-6)]GlcNAc
# Method in brief: as §1
# [15] = target: GlcNAc(b1-2)Man(a1-3)[GlcNAc(b1-4)][GlcNAc(b1-2)Man(a1-6)]Man(b1-4)GlcNAc(b1-4)GlcNAc
# Method in brief: as §1
# [16] = target: GlcNAc(b1-2)Man(a1-3)[GlcNAc(b1-4)][GlcNAc(b1-2)Man(a1-6)]Man(b1-4)GlcNAc(b1-4)[Fuc(a1-6)]GlcNAc
# Method in brief: as §1
# [17] = target: GlcNAc(b1-2)[GlcNAc(b1-4)]Man(a1-3)[GlcNAc(b1-2)Man(a1-6)]Man(b1-4)GlcNAc(b1-4)GlcNAc
# Method in brief: as §1
# [18] = target: GlcNAc(b1-2)[GlcNAc(b1-4)]Man(a1-3)[GlcNAc(b1-4)][GlcNAc(b1-2)Man(a1-6)]Man(b1-4)GlcNAc(b1-4)GlcNAc
# Method in brief: as §1
# [19] = target: GlcNAc(b1-2)[GlcNAc(b1-4)]Man(a1-3)[GlcNAc(b1-4)][GlcNAc(b1-2)[GlcNAc(b1-6)]Man(a1-6)]Man(b1-4)GlcNAc(b1-4)GlcNAc
# Method in brief: as §1
# [20] = target: GlcNAc(b1-2)[GlcNAc(b1-4)]Man(a1-3)[GlcNAc(b1-4)][GlcNAc(b1-2)[GlcNAc(b1-6)]Man(a1-6)]Man(b1-4)GlcNAc(b1-4)[Fuc(a1-6)]GlcNAc
# Method in brief: as §1
# [21] = target: GlcNAc(b1-2)[GlcNAc(b1-6)]Man(a1-6)[GlcNAc(b1-2)Man(a1-3)]Man(b1-4)GlcNAc(b1-4)GlcNAc
# Method in brief: as §1
# [22] = target: GlcNAc(b1-2)[GlcNAc(b1-6)]Man(a1-6)[GlcNAc(b1-2)Man(a1-3)]Man(b1-4)GlcNAc(b1-4)[Fuc(a1-6)]GlcNAc
# Method in brief: as §1
# [23] = target: GlcNAc(b1-2)[GlcNAc(b1-6)]Man(a1-6)[GlcNAc(b1-4)][GlcNAc(b1-2)Man(a1-3)]Man(b1-4)GlcNAc(b1-4)GlcNAc
# Method in brief: as §1
# GlcNAc(b1-3)Fuc = target: GlcNAc(b1-3)Fuc
# Method in brief: as §1
# GlcNAc(b1-3)Gal = target: GlcNAc(b1-3)Gal
# Method in brief: as §1
# [24] = target: GlcNAc(b1-3)Gal(b1-3)GalNAc
# Method in brief: as §1
# GlcNAc(b1-3)Gal(b1-4)Glc = target: GlcNAc(b1-3)Gal(b1-4)Glc
# Method in brief: as §1
# [25] = target: GlcNAc(b1-3)Gal(b1-4)GlcNAc
# Method in brief: as §1
# [26] = target: GlcNAc(b1-3)Gal(b1-4)GlcNAc(b1-2)Man(a1-3)[GlcNAc(b1-3)Gal(b1-4)GlcNAc(b1-2)Man(a1-6)]Man(b1-4)GlcNAc(b1-4)GlcNAc
# Method in brief: as §1
# [27] = target: GlcNAc(b1-3)Gal(b1-4)GlcNAc(b1-2)Man(a1-3)[GlcNAc(b1-3)Gal(b1-4)GlcNAc(b1-2)Man(a1-6)]Man(b1-4)GlcNAc(b1-4)[Fuc(a1-6)]GlcNAc
# Method in brief: as §1
# [28] = target: GlcNAc(b1-3)Gal(b1-4)GlcNAc(b1-2)[GlcNAc(b1-3)Gal(b1-4)GlcNAc(b1-6)]Man(a1-6)[GlcNAc(b1-3)Gal(b1-4)GlcNAc(b1-2)Man(a1-3)]Man(b1-4)GlcNAc(b1-4)GlcNAc
# Method in brief: as §1
# [29] = target: GlcNAc(b1-3)Gal(b1-4)GlcNAc(b1-3)Gal(b1-4)GlcNAc
# Method in brief: as §1
# [30] = target: GlcNAc(b1-3)Gal(b1-4)GlcNAc(b1-3)Gal(b1-4)GlcNAc(b1-2)Man(a1-3)[GlcNAc(b1-3)Gal(b1-4)GlcNAc(b1-3)Gal(b1-4)GlcNAc(b1-2)Man(a1-6)]Man(b1-4)GlcNAc(b1-4)GlcNAc
# Method in brief: as §1
binder,measurement,setting,value
LecRKVI.2 (protein) RTTTNFAFRGFNGNQSKIRIEGAAMIKPDGLLRLTDRKSNVTGTAFYHKPVRLLNRNSTNVTIRSFSTSFVFVIIPSSSSNKGFGFTFTLSPTPYRLNAGSAQYLGVFNKENNGDPRNHVFAVEFDTVQGSRDDNTDRIGNDIGLNYNSRTSDLQEPVVYYNNDDHNKKEDFQLESGNPIQALLEYDGATQMLNVTVYPARLGFKPTKPLISQHVPKLLEIVQEEMYVGFTASTGKGQSSAHYVMGWSFSSGGERPIADVLILSELPPPPPNKAKKEGLNS,glycan array binding signal (z-score),Glc(b1-6)Glc,-0.209
same,glycan array binding signal (z-score),GlcA(b1-3)Gal,-0.486
same,glycan array binding signal (z-score),GlcA(b1-3)GlcNAc,-0.382
same,glycan array binding signal (z-score),GlcA(b1-6)Gal,-0.282
same,glycan array binding signal (z-score),[1],-0.393
same,glycan array binding signal (z-score),[2],-0.486
same,glycan array binding signal (z-score),[3],-0.415
same,glycan array binding signal (z-score),[4],-0.395
same,glycan array binding signal (z-score),[5],-0.337
same,glycan array binding signal (z-score),[6],-0.231
same,glycan array binding signal (z-score),[7],-0.446
same,glycan array binding signal (z-score),[8],-0.353
same,glycan array binding signal (z-score),[9],-0.386
same,glycan array binding signal (z-score),[10],0.026
same,glycan array binding signal (z-score),[11],-0.32
same,glycan array binding signal (z-score),[12],-0.006
same,glycan array binding signal (z-score),[13],-0.271
same,glycan array binding signal (z-score),[14],-0.243
same,glycan array binding signal (z-score),[15],-0.349
same,glycan array binding signal (z-score),[16],-0.352
same,glycan array binding signal (z-score),[17],-0.464
same,glycan array binding signal (z-score),[18],-0.397
same,glycan array binding signal (z-score),[19],0.257
same,glycan array binding signal (z-score),[20],-0.33
same,glycan array binding signal (z-score),[21],-0.329
same,glycan array binding signal (z-score),[22],-0.29
same,glycan array binding signal (z-score),[23],-0.379
same,glycan array binding signal (z-score),GlcNAc(b1-3)Fuc,-0.233
same,glycan array binding signal (z-score),GlcNAc(b1-3)Gal,-0.322
same,glycan array binding signal (z-score),[24],-0.282
same,glycan array binding signal (z-score),GlcNAc(b1-3)Gal(b1-4)Glc,-0.366
same,glycan array binding signal (z-score),[25],-0.378
same,glycan array binding signal (z-score),[26],-0.318
same,glycan array binding signal (z-score),[27],-0.326
same,glycan array binding signal (z-score),[28],-0.33
same,glycan array binding signal (z-score),[29],-0.415
same,glycan array binding signal (z-score),[30],-0.121
